Test results as given in patent US8067379B2, “Sulfur compounds as inhibitors of hepatitis C virus NS3 serine protease” (Schering Corporation, priority 2004, dated 2011).

Target: Recombinant heterodimeric HCV NS3/NS4A protease (strain 1a) (Hepatitis C virus genotype 1a, UniProt P27958)
Assay: Spectrophotometric assay for HCV serine protease inhibitory activity (chromogenic ester substrates)
Format: biochemical
Details: Table 3, sulfide compounds; HCV serine protease; read-out: Ki* range
Text: Assay for HCV Protease Inhibitory Activity:
Spectrophotometric Assay: Spectrophotometric assay for the HCV serine protease can be performed on the inventive compounds by following the procedure described by R. Zhang et al, Analytical Biochemistry, 270 (1999) 268-275, the disclosure of which is incorporated herein by reference. The assay based on the proteolysis of chromogenic ester substrates is suitable for the continuous monitoring of HCV NS3 protease activity. The substrates are derived from the P side of the NS5A-NS5B junction sequence (Ac-DTEDWX(Nva), where X=A or P) whose C-terminal carboxyl groups are esterified with one of four different chromophoric alcohols (3- or 4-nitrophenol, 7-hydroxy-4-methyl-coumarin, or 4-phenylazophenol).
Protein concentrations are determined by the Biorad dye method using recombinant HCV protease standards previously quantified by amino acid analysis. Prior to assay initiation, the enzyme storage buffer (50 mM sodium phosphate pH 8.0, 300 mM NaCl, 10% glycerol, 0.05% lauryl maltoside and 10 mM DTT) is exchanged for the assay buffer (25 mM MOPS pH 6.5, 300 mM NaCl, 10% glycerol, 0.05% lauryl maltoside, 5 μM EDTA and 5 μM DTT) utilizing a Biorad Bio-Spin P-6 prepacked column.
Protease Assay: HCV protease assays are performed at 30° C. using a 200 μl reaction mix in a 96-well microtiter plate. Assay buffer conditions (25 mM MOPS pH 6.5, 300 mM NaCl, 10% glycerol, 0.05% lauryl maltoside, 5 μM EDTA and 5 μM DTT) are optimized for the NS3/NS4A heterodimer (D. L. Sali et al, ibid.)). […] Fifty μls of prewarmed protease (12 nM, 30° C.) in assay buffer, is then used to initiate the reaction (final volume 200 μl). The plates are monitored over the length of the assay (60 minutes) for change in absorbance at the appropriate wavelength (340 nm for 3-Np and HMC, 370 nm for PAP, and 400 nm for 4-Np) using a Spectromax Plus microtiter plate reader equipped with a monochrometer (acceptable results can be obtained with plate readers that utilize cutoff filters). Proteolytic cleavage of the ester linkage between the Nva and the chromophore is monitored at the appropriate wavelength against a no enzyme blank as a control for non-enzymatic hydrolysis. The evaluation of substrate kinetic parameters is performed over a 30-fold substrate concentration range (˜6-200 μM). Initial velocities are determined using linear regression and kinetic constants are obtained by fitting the data to the Michaelis-Menten equation using non-linear regression analysis (Mac Curve Fit 1.1, K. Raner). Turnover numbers (kcat) are calculated assuming the enzyme is fully active.
Evaluation of Inhibitors and Inactivators: The inhibition constants (Ki) for the competitive inhibitors Ac-D-(D-Gla)-L-l-(Cha)-C-OH (27), Ac-DTEDWA(Nva)-OH and Ac-DTEDVVP(Nva)-OH are determined experimentally at fixed concentrations of enzyme and substrate by plotting vo/vi vs. inhibitor concentration ([l]o) according to the rearranged Michaelis-Menten equation for competitive inhibition kinetics: vo/vi=1+[l]o/(Ki (1+[S]o/Km)), where vo is the uninhibited initial velocity, vi is the initial velocity in the presence of inhibitor at any given inhibitor concentration ([l]o) and [S]o is the substrate concentration used.

Compared with `Cc1occc1SCC1(NC(=O)N[C@H](C(=O)N2C[C@H]3[C@@H]([C@H]2C(=O)NC(CC2CC2)C(=O)C(N)=O)C3(C)C)C(C)(C)C)CCCCC1` (stereo partly drawn) [Compound 124], `CC(C)(C)[C@H](NC(=O)NC1(CSc2ccccn2)CCCCC1)C(=O)N1C[C@H]2[C@@H]([C@H]1C(=O)NC(CC1CCC1)C(=O)C(N)=O)C2(C)C` (stereo partly drawn) [Compound 127] is lower in Ki: 75 to 250 nM for the first, < 75 nM for the second. The second binds more tightly here.

Compared with `C=CCNC(=O)C(=O)C(CCC)NC(=O)[C@@H]1[C@@H]2[C@H](CN1C(=O)[C@@H](NC(=O)NC1(CSCc3ccco3)CCCCC1)C(C)(C)C)C2(C)C` (stereo partly drawn) [Compound 125], `C#CCCC(NC(=O)[C@@H]1[C@@H]2[C@H](CN1C(=O)[C@@H](NC(=O)NC1(CSCc3ccco3)CCCCC1)C(C)(C)C)C2(C)C)C(=O)C(=O)NCC=C` (stereo partly drawn) [Compound 126] is lower in Ki: 75 to 250 nM for the first, < 75 nM for the second. The second binds more tightly here.

Compared with `C=CCNC(=O)C(=O)C(CCC)NC(=O)[C@@H]1[C@@H]2[C@H](CN1C(=O)[C@@H](NC(=O)NC1(CSc3ccccn3)CCCCC1)C(C)(C)C)C2(C)C` (stereo partly drawn) [Compound 128], `C=CCNC(=O)C(=O)C(CCC(F)(F)F)NC(=O)[C@@H]1[C@@H]2[C@H](CN1C(=O)[C@@H](NC(=O)NC1(CSc3ccccn3)CCCCC1)C(C)(C)C)C2(C)C` (stereo partly drawn) [Compound 129] is higher in Ki: 75 to 250 nM for the first, > 250 nM for the second.

`CC(C)(C)SCCC1(NC(=O)N[C@H](C(=O)N2C[C@H]3[C@@H]([C@H]2C(=O)NC(CC2CC2)C(=O)C(N)=O)C3(C)C)C(C)(C)C)CCCCC1` (stereo partly drawn) [Compound 130] and `C#CCCC(NC(=O)[C@@H]1[C@@H]2[C@H](CN1C(=O)[C@@H](NC(=O)NC1(CCSC(C)(C)C)CCCCC1)C(C)(C)C)C2(C)C)C(=O)C(=O)NCC=C` (stereo partly drawn) [Compound 131] fall in the same range of Ki: 75 to 250 nM for the first, 75 to 250 nM for the second.

Same assay, conditions: Table 3, sulfone compounds; HCV serine protease; read-out: Ki* range

`CC(C)(C)[C@H](NC(=O)NC1(CS(=O)(=O)c2ccccc2)CCCCC1)C(=O)N1C[C@H]2[C@@H]([C@H]1C(=O)NC(CC1CC1)C(=O)C(N)=O)C2(C)C` (stereo partly drawn) [Compound 142] and `CC(C)(C)[C@H](NC(=O)NC1(CS(=O)(=O)c2ccccc2)CC1)C(=O)N1C[C@H]2[C@@H]([C@H]1C(=O)NC(CC1CC1)C(=O)C(N)=O)C2(C)C` (stereo partly drawn) [Compound 162] cannot be ordered by Ki: < 75 nM for the first, < 75 nM for the second.

`CC(C)[C@@H](CS(=O)(=O)c1ccccc1)NC(=O)N[C@H](C(=O)N1C[C@H]2[C@@H]([C@H]1C(=O)NC(CC1CCC1)C(=O)C(N)=O)C2(C)C)C(C)(C)C` (stereo partly drawn) [Compound 143] and `CC(C)[C@@H](CS(=O)(=O)c1ccccc1)NC(=O)N[C@H](C(=O)N1C[C@H]2[C@@H]([C@H]1C(=O)NC(CC1CC1)C(=O)C(N)=O)C2(C)C)C(C)(C)C` (stereo partly drawn) [Compound 144] cannot be ordered by Ki: < 75 nM for the first, < 75 nM for the second.

`CC(C)[C@@H](CS(=O)(=O)Cc1ccccc1)NC(=O)N[C@H](C(=O)N1C[C@H]2[C@@H]([C@H]1C(=O)NC(CC1CCC1)C(=O)C(N)=O)C2(C)C)C(C)(C)C` (stereo partly drawn) [Compound 145] and `CC(C)[C@@H](CS(=O)(=O)Cc1ccccc1)NC(=O)N[C@H](C(=O)N1C[C@H]2[C@@H]([C@H]1C(=O)NC(CC1CC1)C(=O)C(N)=O)C2(C)C)C(C)(C)C` (stereo partly drawn) [Compound 146] cannot be ordered by Ki: < 75 nM for the first, < 75 nM for the second.

`C=CCNC(=O)C(=O)C(CCCC)NC(=O)[C@@H]1[C@@H]2[C@H](CN1C(=O)[C@@H](NC(=O)N[C@H](CS(=O)(=O)C(C)(C)C)C(C)C)C(C)(C)C)C2(C)C` (stereo partly drawn) [Compound 147] and `C=CCNC(=O)C(=O)C(CCCC)NC(=O)[C@@H]1[C@@H]2[C@H](CN1C(=O)[C@@H](NC(=O)N[C@H](CS(=O)(=O)c1ccccc1)C(C)C)C(C)(C)C)C2(C)C` (stereo partly drawn) [Compound 148] fall in the same range of Ki: 75 to 250 nM for the first, 75 to 250 nM for the second.

Compared with `C=CCNC(=O)C(=O)C(CCCC)NC(=O)[C@@H]1[C@@H]2[C@H](CN1C(=O)[C@@H](NC(=O)N[C@H](CS(=O)(=O)Cc1ccccc1)C(C)C)C(C)(C)C)C2(C)C` (stereo partly drawn) [Compound 149], `C=CCNC(=O)C(=O)C(CCCC)NC(=O)[C@@H]1[C@@H]2[C@H](CN1C(=O)[C@@H](NC(=O)N[C@H](CS(=O)(=O)Cc1ccccc1)c1ccccc1)C(C)(C)C)C2(C)C` (stereo partly drawn) [Compound 153] is higher in Ki: 75 to 250 nM for the first, > 250 nM for the second. The first binds more tightly here.

`CC(C)[C@@H](CS(=O)(=O)C(C)(C)C)NC(=O)N[C@H](C(=O)N1C[C@H]2[C@@H]([C@H]1C(=O)NC(CC1CC1)C(=O)C(N)=O)C2(C)C)C(C)(C)C` (stereo partly drawn) [Compound 150] and `CC(C)[C@@H](CS(=O)(=O)C(C)(C)C)NC(=O)N[C@H](C(=O)N1C[C@H]2[C@@H]([C@H]1C(=O)NC(CC1CCC1)C(=O)C(N)=O)C2(C)C)C(C)(C)C` (stereo partly drawn) [Compound 165] cannot be ordered by Ki: < 75 nM for the first, < 75 nM for the second.

`CC(C)(C)[C@H](NC(=O)N[C@H](CS(=O)(=O)Cc1ccccc1)c1ccccc1)C(=O)N1C[C@H]2[C@@H]([C@H]1C(=O)NC(CC1CCC1)C(=O)C(N)=O)C2(C)C` (stereo partly drawn) [Compound 151] and `CC(C)(C)[C@H](NC(=O)N[C@H](CS(=O)(=O)Cc1ccccc1)c1ccccc1)C(=O)N1C[C@H]2[C@@H]([C@H]1C(=O)NC(CC1CC1)C(=O)C(N)=O)C2(C)C` (stereo partly drawn) [Compound 152] fall in the same range of Ki: 75 to 250 nM for the first, 75 to 250 nM for the second.

First: C#CCCC(NC(=O)[C@@H]1[C@@H]2[C@H](CN1C(=O)[C@@H](NC(=O)NC1(CS(=O)(=O)c3ccccc3)CCCCC1)C(C)(C)C)C2(C)C)C(=O)C(N)=O (stereo partly drawn) [Compound 154]
Second: C#CCCC(NC(=O)[C@@H]1[C@@H]2[C@H](CN1C(=O)[C@@H](NC(=O)NC1(CS(=O)(=O)c3ccccc3)CC1)C(C)(C)C)C2(C)C)C(=O)C(=O)NCC=C (stereo partly drawn) [Compound 166]
The Ki of the first is lower: < 75 nM for the first, 75 to 250 nM for the second. The first binds more tightly here.

`CC(C)[C@@H](CS(=O)(=O)C(C)(C)C)NC(=O)N[C@H](C(=O)N1C[C@H]2[C@@H]([C@H]1C(=O)NC(CC1CC1)C(=O)C(N)=O)C2(C)C)C1CCCCC1` (stereo partly drawn) [Compound 155] and `CC(C)[C@@H](CS(=O)(=O)C(C)(C)C)NC(=O)N[C@H](C(=O)N1C[C@H]2[C@@H]([C@H]1C(=O)NC(CC1CCC1)C(=O)C(N)=O)C2(C)C)C1CCCCC1` (stereo partly drawn) [Compound 156] cannot be ordered by Ki: < 75 nM for the first, < 75 nM for the second.

`C=CCNC(=O)C(=O)C(CCCC)NC(=O)[C@@H]1[C@@H]2[C@H](CN1C(=O)[C@@H](NC(=O)N[C@H](CS(=O)(=O)C(C)(C)C)C(C)C)C1CCCCC1)C2(C)C` (stereo partly drawn) [Compound 157] and `CC(C)[C@@H](CS(=O)(=O)c1ccccc1)NC(=O)N[C@H](C(=O)N1C[C@H]2[C@@H]([C@H]1C(=O)NC(CC1CC1)C(=O)C(N)=O)C2(C)C)C1CCCCC1` (stereo partly drawn) [Compound 164] cannot be ordered by Ki: < 75 nM for the first, < 75 nM for the second.

`CC(C)[C@@H](CS(=O)(=O)Cc1ccccc1)NC(=O)N[C@H](C(=O)N1C[C@H]2[C@@H]([C@H]1C(=O)NC(CC1CCC1)C(=O)C(N)=O)C2(C)C)C1CCCCC1` (stereo partly drawn) [Compound 158] and `CC(C)[C@@H](CS(=O)(=O)Cc1ccccc1)NC(=O)N[C@H](C(=O)N1C[C@H]2[C@@H]([C@H]1C(=O)NC(CC1CC1)C(=O)C(N)=O)C2(C)C)C1CCCCC1` (stereo partly drawn) [Compound 159] cannot be ordered by Ki: < 75 nM for the first, < 75 nM for the second.

`CC(C)(CS(=O)(=O)c1ccccc1)NC(=O)N[C@H](C(=O)N1C[C@H]2[C@@H]([C@H]1C(=O)NC(CC1CC1)C(=O)C(N)=O)C2(C)C)C(C)(C)C` (stereo partly drawn) [Compound 160] and `CC(C)(C)[C@H](NC(=O)N[C@H](CS(=O)(=O)c1ccccc1)C(C)(C)C)C(=O)N1C[C@H]2[C@@H]([C@H]1C(=O)NC(CC1CC1)C(=O)C(N)=O)C2(C)C` (stereo partly drawn) [Compound 168] cannot be ordered by Ki: < 75 nM for the first, < 75 nM for the second.

`CC(C)(C)[C@H](NC(=O)NC1(CS(C)(=O)=O)CCCCC1)C(=O)N1C[C@H]2[C@@H]([C@H]1C(=O)NC(CC1CC1)C(=O)C(N)=O)C2(C)C` (stereo partly drawn) [Compound 161] and `CC(C)(C)[C@H](NC(=O)N[C@H](CS(=O)(=O)c1ccccc1)C(C)(C)C)C(=O)N1C[C@H]2[C@@H]([C@H]1C(=O)NC(CC1CCC1)C(=O)C(N)=O)C2(C)C` (stereo partly drawn) [Compound 167] cannot be ordered by Ki: < 75 nM for the first, < 75 nM for the second.

For `CC(C)[C@@H](CS(=O)(=O)c1ccccc1)NC(=O)N[C@H](C(=O)N1C[C@H]2[C@@H]([C@H]1C(=O)NC(CC1CCC1)C(=O)C(N)=O)C2(C)C)C1CCCCC1` (stereo partly drawn) [Compound 163], the Ki was < 75 nM.

Same assay, conditions: Table 3, sulfoxide compounds; HCV serine protease; read-out: Ki* range

Work on `C=CCNC(=O)C(=O)C(CCC(F)(F)F)NC(=O)[C@@H]1[C@@H]2[C@H](CN1C(=O)[C@@H](NC(=O)NC1(C[S+]([O-])c3ccccn3)CCCCC1)C(C)(C)C)C2(C)C` (stereo partly drawn) [Compound 138] yielded a Ki of 75 to 250 nM.
